In PubChem BioAssay AID652104 (National Center for Advancing Translational Sciences (NCATS), 2013):
Screen size: about 410,000 compounds; about 7,200 (1.8%) were called active. This list was built around the results that the source calls inconclusive (neither active nor inactive); the mix of calls is not that of the screen. The call rests on the fitted dose curve; in most records, active means well fitted activation curve with a large enough effect; inconclusive means small, poorly fitted or top-dose-only effect, or another doubt; inactive means no such curve, though single readings can be large or run the other way. No potency is given beside an inconclusive call; the fits are too rough.

Test: qHTS of TDP-43 Inhibitors; further: nearly all actives have a fitted effect of over 50% in size; on growth rescue (activation): % of control where 0% means no effect
Settings: TDP-43 expressing yeast growth rescue, BacTiter-Glo, 24 h; growth rescue (activation): at 46.1 µM (top of the series) unless noted
Method in brief: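 Galactose-induced TDP-43 yeast, OD600=0.02, compound pinned; 24 hr, 30 deg C; BacTiter-Glo luminescence for growth. Inhibitors of TDP-43 toxicity read as activators.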
Potency means the concentration at half of the fitted maximal effect; tags describe the fitted curve by direction and shape.

Compound	Potency	growth rescue (activation)
COc1cccc(-c2nn3c(-c4ccccn4)nnc3s2)c1	active: 15.8 µM	–
Cc1cc(C)c2c(c1)-c1cc(C)nn1C(c1ccc3c(c1)OCO3)N2 (stereo not drawn)	active: 17.8 µM	–
COc1ccc(N2CCN(C(=O)CCc3c(C)nc4c(-c5ccccc5)c(C)nn4c3C)CC2)cc1	active: 22.4 µM	–
CCCOc1ccc(NC(=O)CC2C(=O)OCC3CCCCN32)cc1 (stereo not drawn)	active: 35.5 µM	–
COc1ccc2c(c1)cc(CNc1ccc(OC)c(OC)c1)c(=O)n2CC(=O)Nc1ccc(F)cc1	–	inactive: 0%
N/C(=N\OC(=O)CC(c1ccccc1)c1ccccc1)c1cccnc1	inconclusive [activator, single point]	–
O=C(Nc1ccccc1)[C@@H]1CCCN1S(=O)(=O)c1ccc(Cl)cc1	inconclusive [activator, partial curve]	–
COc1cccc(-c2cnc3c(NC(C)=O)cc(-c4cc(F)ccc4OC)cn23)c1	inconclusive [activator, partial curve]	–
CCOC(=O)c1c(C)[nH]c(C)c1C(=O)Cn1nnc(-c2ccccc2C)n1	inconclusive [activator, full curve]	–
O=C1c2ccccc2C(=O)N1CCOc1ccccc1	inconclusive [activator, single point]	–
CCOC(=O)c1cc(-c2ccccc2C)n(CC2CC(c3ccc(OC)cc3)=NO2)n1 (stereo not drawn)	inconclusive [activator, single point]	–
O=C(Nc1nnc(C2=COCCO2)o1)c1cccc(C(F)(F)F)c1	inconclusive [activator, partial curve]	–
COc1ccc(OC)c(NC(=O)COC(=O)Cc2ccsc2)c1	inconclusive [activator, partial curve]	–
CCCCn1cnc2c(SCc3ccccc3)nc(N)nc21	inconclusive [activator, single point]	–
Cc1cccc(-n2c(SCCC(=O)O)nnc2-c2cccs2)c1C	–	inactive: 15.3%
Cc1ccc(N(O)C(C)(C)C)cc1	inconclusive [activator, partial curve]	–
Cc1c(Cl)cccc1NC(=O)CC(c1cccs1)N1Cc2ccccc2C1=O (stereo not drawn)	–	inactive: 0.378%
COc1ccc(OCC(=O)Nc2ccc(NC(=O)c3ccccc3Cl)c(OC)c2)cc1	inconclusive [activator, partial curve, poor fit]	–
Oc1c(C(c2ccccc2F)N2CCOCC2)sc2nc(-c3ccco3)nn12 (stereo not drawn)	inconclusive [activator, partial curve]	–
CC(=O)c1cc(C(=O)c2ccccc2)sc1Nc1ccccc1	active: 35.5 µM	–
O=[N+]([O-])c1ccc(CNc2cccc(F)c2)s1	active: 11.2 µM	–
COc1ccc(Oc2ccc(N/C=C3\CCCC3=O)cc2)cc1	inconclusive [activator, single point]	–
S=c1[nH]c2ccccc2n1Cc1ccccc1	inconclusive [activator, single point]	–

Compound	Potency	growth rescue (activation)
OC(c1ccco1)c1nc(-c2ccc(F)c(Cl)c2)cs1 (stereo not drawn)	active: 12.6 µM	–
Cc1cccc(N2CCN(C(=O)c3cc4c(=O)n(C)c5ccccc5c4n3C)CC2C)c1 (stereo not drawn)	inconclusive [activator, single point]	–
COc1ccc(OCC(=O)Nc2cccc3cccnc23)cc1	active: 12.6 µM	–
COc1cc(C(C)=O)ccc1OCC(=O)N1CCC(Cc2ccccc2)CC1	inconclusive [activator, partial curve]	–
S=c1[nH]nc(-c2ccccc2)n1/N=C/c1ccc(Cl)cc1	inconclusive [activator, partial curve]	–
CCC(=O)Nc1cccc(C(=O)/C=C/c2ccc(F)cc2)c1	inconclusive [activator, single point]	–
COc1ccc2nc(Cl)c(C=O)c(N3CCOCC3)c2c1	inconclusive [activator, single point]	–
O=C1CC(c2ccc(S(=O)(=O)NCc3ccccc3)cc2)CN1 (stereo not drawn)	inconclusive [activator, single point]	–
Cc1c(C(=O)Nc2ccc(-c3nnc4n3CCCCC4)cc2)oc2c1ccc1ccccc12	inconclusive [activator, single point]	–
CCOC(=O)N1CCN(C(=O)COc2ccccc2Cl)CC1	inconclusive [activator, partial curve]	–
O=C(Nn1cnnc1)c1cc2cc(Br)ccc2oc1=O	–	inactive: -11.4%
O=C1OC(c2ccccc2)(N(Nc2ccccc2)c2ccccc2)c2ccccc21 (stereo not drawn)	inconclusive [activator, partial curve]	–
Cc1ccc(C(=O)c2coc3cc([N+](=O)[O-])c(O)c([N+](=O)[O-])c23)cc1	inconclusive [activator, single point]	–
O=C(Oc1ccc([N+](=O)[O-])cc1)c1cncc(Br)c1	inconclusive [activator, single point]	–
CCOc1ccc(N2C(=O)CC(NCc3ccc(S(N)(=O)=O)cc3)C2=O)cc1 (stereo not drawn)	inconclusive [activator, single point]	–
COc1ccc(CNc2nc(S(=O)(=O)c3ccccc3)c(Cl)s2)cc1OC	–	inactive: 0.709%
CC(=O)N1c2ccc(S(=O)(=O)NCC3CCC(C(=O)N4CCCC(C)C4)CC3)cc2CC1C (stereo not drawn)	inconclusive [activator, single point]	–
O=C(Nc1ccc(OC(F)(F)F)cc1)C1CCCN(S(=O)(=O)c2cccc3nonc23)C1 (stereo not drawn)	–	inactive: 16%
O=C(COc1ccc(Cl)cc1)Nc1sc2c(c1C(=O)Nc1cccc(Cl)c1)CCCC2	inconclusive [activator, single point]	–
CCCN1C(=O)C(O)(CC(=O)c2ccc(CC)cc2)c2cc(Br)ccc21 (stereo not drawn)	active: 25.1 µM	–
O=C(CSc1nccn1-c1cccc(Cl)c1)Nc1cccc(C(F)(F)F)c1	active: 20 µM	–
O=C(NC(=O)N1CCN(c2cccc(Cl)c2)CC1)c1ccc(Cl)cc1	inconclusive [activator, single point]	–
Cc1ccc(C(=O)c2c(C)oc3c2C(=O)C(=O)c2ccccc2-3)cc1	inconclusive [activator, single point]	–

Compound	Potency	growth rescue (activation)
Cc1cccc(-n2cc(-c3ccccc3)c3c(NC(C)C)ncnc32)c1	inconclusive [activator, single point]	–
CC1CCN(S(=O)(=O)c2cn(CC(=O)Nc3ccc(F)c(Cl)c3)c(=O)c3ccccc23)CC1	–	inactive: 6.66%
CCCCNC(=O)c1nn2cc(Br)cnc2c1Br	inconclusive [activator, single point]	–
COCC(=O)NCCSc1c(C)[nH]c2ccccc12	inconclusive [activator, single point]	–
COc1ccc2c(c1)CCc1sc(NC(=O)c3ccc(Cl)cc3)nc1-2	inconclusive [activator, partial curve]	–
CCCn1cnc2c(SCc3ccc(Cl)cc3)nc(N)nc21	inconclusive [activator, single point]	–
COc1nc(OC)nc(Oc2ccc(Cl)cc2[N+](=O)[O-])n1	inconclusive [activator, single point]	–
Cc1noc(C)c1-c1ccc(C(=O)NCCc2ccccc2)c2occc12	active: 31.6 µM	–
O=C(NCc1ccccc1)C1=C[C@H](c2coc3ccccc3c2=O)C[C@H](OCc2ccc(CO)cc2)O1	inconclusive [activator, partial curve]	–
CC(C)c1ccc(NC(=O)c2ccc(F)c(S(=O)(=O)N3CCCC3)c2)cc1	–	inactive: -15.3%
Cc1ccc(-c2ccccc2C2=CC(=O)CC(C)(C)C2=O)cc1	inconclusive [activator, partial curve]	–
CC(/C=C/c1ccc2c(c1)OCO2)=N/NC(=O)COc1ccc(C)cc1	–	inactive: 8.42%
Nc1nc2c3ccccc3nc(C3CC3)n2n1	–	inactive: 0.0549%
COc1ccc(-c2ccc(CN3C(C)C(=O)N(Cc4cn(CCC5OCCO5)nn4)CCS3(=O)=O)cc2)cc1 (stereo not drawn)	inconclusive [activator, partial curve]	–
CCC(C)Sc1ccc([C@@H]2[C@@H]3C(=O)N(C)C(=O)[C@@H]3[C@]3(C(=O)OC)CCCCN23)cc1OC (stereo partly drawn)	inconclusive [activator, single point]	–
O=C1[C@H]2[C@@H](c3ccccc3)N[C@]3(CCCN(Cc4ccc(C(F)(F)F)cc4)C3=O)[C@H]2C(=O)N1Cc1ccccc1	inconclusive [activator, single point]	–
Fc1cccc(Cc2c(-c3ccccc3)nc3ccc(Br)cn23)c1	–	inactive: 23.8%
S=C(NCCSCc1ccc(Cl)c(Cl)c1)Nc1ccccc1	active: 11.2 µM	–
CC(=O)C(=Nc1ccc(Cl)cc1Cl)NNc1cccc(Cl)c1	inconclusive [activator, single point]	–
COc1cc2ccccc2cc1C(=O)N1CCN(c2nc3c(C)cc(C)cc3s2)CC1	inconclusive [activator, partial curve]	–
CC1CCN(c2nnc(-n3cccc3CNc3cccc(F)c3)s2)CC1	inconclusive [activator, partial curve]	–
C[C@H](O)[C@@H]1C(=O)N2CCc3c([nH]c4ccccc34)[C@@H]2C[C@@H]1N(C)Cc1ccc(Cl)cc1	inconclusive [activator, single point]	–
